From patent publication US11130803B2, “Isoform-selective TGFβ1 inhibitors and use thereof” (Scholar Rock, Inc., priority 2018, dated 2021) come the findings set out here.

Where a chain is given by its changes, count along the chain named.

B1: Ab7: monoclonal antibody; VH SEQ ID NO: 235, VL SEQ ID NO: 236 (antibody, V domains shown)
VH: EVQLLESGGGLVQPGGSLRLSCAASGFTFADYAMTWVRQAPGKGLEWVSAISGTGAHTYYADSVKGRFTISRDNSKNTLYLQMNSLRAEDTAVYYCARVSSGHWDFDYWGQGTLVTVSS
VL: [… about 100 residues …]FTFGQGTKVEIK
B2: Ab36: monoclonal antibody; VH SEQ ID NO: 253, VL SEQ ID NO: 236 (antibody, V domains shown)
VH: B1 VH with A30R, D31N, T35S, A50S, T54S, A56G, H57A, F106L
VL: [… about 100 residues …]FTFGQGTKVEIK
B3: Ab8: monoclonal antibody; VH SEQ ID NO: 237, VL SEQ ID NO: 236 (antibody, V domains shown)
VH: B1 VH with E1Q, L5V, L11V, G16R, A30S, T35V, T54S, A56F, H57T
VL: [… about 100 residues …]FTFGQGTKVEIK
B4: Ab9: monoclonal antibody; VH SEQ ID NO: 238, VL SEQ ID NO: 236 (antibody, V domains shown)
VH: B1 VH with E1Q, L5V, L11V, A30S, D31S, Y32F, T54S, H57A, Y60F
VL: [… about 100 residues …]FTFGQGTKVEIK

T2 sequence (P01137 30-390): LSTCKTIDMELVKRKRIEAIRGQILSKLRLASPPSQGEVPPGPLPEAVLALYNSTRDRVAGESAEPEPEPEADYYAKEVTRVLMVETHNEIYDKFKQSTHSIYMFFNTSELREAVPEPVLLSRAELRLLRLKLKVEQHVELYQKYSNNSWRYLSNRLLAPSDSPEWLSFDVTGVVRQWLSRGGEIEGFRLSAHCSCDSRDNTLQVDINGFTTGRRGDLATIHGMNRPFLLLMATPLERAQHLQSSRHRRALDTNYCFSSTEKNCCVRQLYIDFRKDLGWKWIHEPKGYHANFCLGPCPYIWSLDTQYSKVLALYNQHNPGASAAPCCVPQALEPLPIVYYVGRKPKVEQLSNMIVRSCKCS
T2 sequence (Q86YC3 19-650 partner limits assumed): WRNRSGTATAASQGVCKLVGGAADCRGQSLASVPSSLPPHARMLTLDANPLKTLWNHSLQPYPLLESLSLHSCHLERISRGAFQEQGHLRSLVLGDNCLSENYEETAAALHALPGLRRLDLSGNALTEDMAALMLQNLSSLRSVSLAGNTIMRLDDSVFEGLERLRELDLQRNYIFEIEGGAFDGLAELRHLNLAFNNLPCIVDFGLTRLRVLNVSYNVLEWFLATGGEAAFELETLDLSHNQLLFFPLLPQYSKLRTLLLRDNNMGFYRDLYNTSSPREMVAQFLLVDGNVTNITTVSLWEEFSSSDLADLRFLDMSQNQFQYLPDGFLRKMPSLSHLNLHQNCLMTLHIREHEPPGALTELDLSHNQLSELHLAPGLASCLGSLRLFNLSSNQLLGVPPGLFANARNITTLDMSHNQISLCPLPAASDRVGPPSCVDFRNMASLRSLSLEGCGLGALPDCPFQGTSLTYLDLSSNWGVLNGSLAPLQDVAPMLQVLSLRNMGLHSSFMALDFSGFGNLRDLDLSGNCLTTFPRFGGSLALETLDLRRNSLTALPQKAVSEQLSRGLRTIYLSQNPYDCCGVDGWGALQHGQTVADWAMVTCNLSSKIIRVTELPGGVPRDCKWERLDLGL

The first assay deals with T1, recombinant human GARP-proTGFβ1 complex (Homo sapiens, UniProt P01137).
T1 construct: made in house
T1 sequence (P01137 30-390): as the sequence (P01137 30-390) above
T1 sequence (Q14392 20-627 partner limits assumed): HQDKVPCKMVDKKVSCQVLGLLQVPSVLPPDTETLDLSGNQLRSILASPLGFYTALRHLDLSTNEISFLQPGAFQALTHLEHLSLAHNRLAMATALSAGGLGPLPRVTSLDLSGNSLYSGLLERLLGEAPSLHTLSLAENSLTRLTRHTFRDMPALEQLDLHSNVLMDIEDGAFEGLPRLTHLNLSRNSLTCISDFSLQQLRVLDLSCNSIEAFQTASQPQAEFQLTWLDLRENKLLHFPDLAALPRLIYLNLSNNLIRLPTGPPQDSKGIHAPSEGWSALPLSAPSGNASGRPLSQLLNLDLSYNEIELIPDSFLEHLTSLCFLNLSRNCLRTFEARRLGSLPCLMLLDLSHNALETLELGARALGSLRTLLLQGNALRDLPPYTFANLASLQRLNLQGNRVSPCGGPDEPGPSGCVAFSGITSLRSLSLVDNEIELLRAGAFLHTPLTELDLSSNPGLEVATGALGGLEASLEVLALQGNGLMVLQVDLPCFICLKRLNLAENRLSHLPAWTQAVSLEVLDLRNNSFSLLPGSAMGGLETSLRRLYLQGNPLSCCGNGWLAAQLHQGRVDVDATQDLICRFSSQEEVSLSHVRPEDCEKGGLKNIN
The assay can be described thus: Octet (Biolayer Interferometry) in vitro kinetic binding. The note with it: in M. From the text:
(§1) Biolayer Interferometry (BLI):BLI is a label-free technology for optically measuring biomolecular interactions, e.g., between a ligand immobilized on the biosensor tip surface and an analyte in solution. BLI provides the ability to monitor binding specificity, rates of association and dissociation, or concentration, with precision and accuracy. BLI platform instruments are commercially available, for example, from ForteBio and are commonly referred to as the Octet® System.
(§2) BLI-based binding assays are widely used in the art for measuring affinities and kinetics of antibodies to antigens. It is a label-free technology in which biomolecular interactions are analyzed on the basis of optical interference. One of the proteins, for example, an antibody being tested, can be immobilized on the biosensor tip. When the other protein in solution, for example, an antigen, becomes bound to the immobilized antibody, it causes a shift in the interference pattern, which can be measured in real-time. This allows the monitoring of binding specificity, rates of association and dissociation, as well as concentration dependency. […] Due to its ease of use and fast results, BLI-based assays such as the Octet® system (available from ForteBio/Molecular Devices, Fremont Calif.), are particularly convenient when used as an initial screening method to identify and separate a pool of “binders” from a pool of “non-binders” or “weak binders” in the screening process.
(§3) Table 8 below provides non-limiting examples of high-affinity, context-independent proTGFβ1 antibodies encompassed by the present invention. The table provides representative results from in vitro binding assays, as measured by Octet®.
(§4) Column (A) of the table lists monoclonal antibodies with discrete amino acid sequences. […] Columns (B), (D), (E) and (F) provide affinities of each of the listed antibodies, measured in KD. […] Average KD values of (B) and (C) are shown in the corresponding column (D), which collectively represents affinities of the antibodies to ECM- or matrix-associated proTGFβ1 complexes. Similarly, Average KD values of (E) and (F) are shown in the corresponding column (G), which collectively represents affinities of the antibodies to cell-surface or cell-associated proTGFβ1 complexes. Finally, relative ratios between the average KD values from columns (D) and (G) are expressed as “fold bias” in column (H). Thus, the greater the number of column (H) is, the greater bias exists for the particular antibody, when comparing binding preferences of the antibody for matrix-associated complexes and cell-surface complexes. This is one way of quantitatively representing and comparing inherent bias of antibodies to their target complexes. Such analyses may be useful in guiding the selection process for a candidate antibody for particular therapeutic use.
(§5) In some embodiments, the binding affinity of an antibody, or antigen binding portion thereof, to an antigen (e.g., protein complex), such as presenting molecule-proTGFβ1 complexes, is determined using an Octet assay. In some embodiments, an Octet assay is an assay that determines one or more a kinetic parameters indicative of binding between an antibody and antigen. In some embodiments, an Octet® system (ForteBio, Menlo Park, Calif.) is used to determine the binding affinity of an antibody, or antigen binding portion thereof, to presenting molecule-proTGFβ1 complexes. For example, binding affinities of antibodies may be determined using the fortéBio Octet QKe dip and read label free assay system utilizing bio-layer interferometry. In some embodiments, antigens are immobilized to biosensors (e.g., streptavidin-coated biosensors) and the antibodies and complexes (e.g., biotinylated presenting molecule-proTGFβ1 complexes) are presented in solution at high concentration ([…]) to measure binding interactions. […]
As for B1, the “(E) hGARP, Cell-associated proTGFb1 (KD)” value was 1.80E−08.
Same read-out and setting: in the case of B2 it was 1.28E−08.
Still for that read-out and setting: next, B3: 1.54E−08.
The same measure, in the same setting: next, B4: 1.55E−08.

The next assay has as its target T2, recombinant human LRRC33-proTGFβ1 complex (Homo sapiens, UniProt P01137).
T2 construct: made in house
Described as above. Particulars: in M.
From the text: as §1, §2, §3, §4, §5
As for B1, the “(F) hLRRC33, Cell-associated proTGFb1 (KD)” value is on record as 1.03E−08.
The same measure, in the same setting: next, B2: 1.42E−09; B3: 1.00E−08; B4: 1.30E−09.

For another assay, the target named is T3, recombinant human LTBP1-proTGFβ1 complex (Homo sapiens, UniProt P01137).
T3 construct: made in house; host or cells: Expi293F cells, transient co-transfection
T3 sequence (P01137 30-390): as the sequence (P01137 30-390) above
T3 sequence (Q14766 873-1507 partner): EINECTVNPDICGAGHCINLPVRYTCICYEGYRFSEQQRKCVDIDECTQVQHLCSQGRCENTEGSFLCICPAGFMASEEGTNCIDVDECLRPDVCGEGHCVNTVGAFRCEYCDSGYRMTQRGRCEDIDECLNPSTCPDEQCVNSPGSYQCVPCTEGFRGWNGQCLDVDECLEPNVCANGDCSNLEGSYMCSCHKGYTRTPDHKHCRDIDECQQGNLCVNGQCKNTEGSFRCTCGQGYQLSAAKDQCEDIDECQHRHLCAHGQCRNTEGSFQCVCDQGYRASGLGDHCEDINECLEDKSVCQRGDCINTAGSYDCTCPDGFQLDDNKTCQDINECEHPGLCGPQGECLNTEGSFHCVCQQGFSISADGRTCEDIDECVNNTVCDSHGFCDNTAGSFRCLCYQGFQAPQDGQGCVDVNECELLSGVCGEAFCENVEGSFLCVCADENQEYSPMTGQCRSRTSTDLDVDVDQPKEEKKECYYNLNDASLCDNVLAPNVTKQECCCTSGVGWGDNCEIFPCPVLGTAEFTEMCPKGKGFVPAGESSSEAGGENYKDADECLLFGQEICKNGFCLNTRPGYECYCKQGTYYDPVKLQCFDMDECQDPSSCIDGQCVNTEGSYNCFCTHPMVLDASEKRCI
Described as above. The note with it: in M.
From the text: as §1, §2, §3, §4, §5
Regarding B1, the “(B) hLTBP1, Matrix-associated proTGFb1 (KD)” value is listed as 4.87E−10.
The same measure, in the same setting: next, B2: 3.53E−10; B3: 3.29E−10; B4: 3.48E−10.

The target of the next assay is T4, recombinant human LTBP3-proTGFβ1 complex (Homo sapiens, UniProt P01137).
T4 construct: made in house; host or cells: Expi293F cells, transient co-transfection
T4 sequence (P01137 30-390): as the sequence (P01137 30-390) above
T4 sequence (Q9NS15 866-1039 partner limits assumed): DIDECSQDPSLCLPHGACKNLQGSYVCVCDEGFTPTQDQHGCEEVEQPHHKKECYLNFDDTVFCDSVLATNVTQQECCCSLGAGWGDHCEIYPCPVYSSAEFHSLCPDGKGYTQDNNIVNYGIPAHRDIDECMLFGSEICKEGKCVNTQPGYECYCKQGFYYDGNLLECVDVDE
Described as above. The note with it: in M.
From the text: as §1, §2, §3, §4, §5
Regarding B1, the “(C) hLTBP3, Matrix-associated proTGFb1 (KD)” value is recorded as 4.17E−10.
On the same count and under the same terms, in the case of B2 it was 4.15E−10; in that of B3, 3.02E−10; in that of B4, 2.84E−10.

The next assay concerns matrix-associated (LTBP1/LTBP3) and cell-associated (GARP/LRRC33) proTGFβ1 complexes. The assay can be described thus: Octet: average KD and fold bias, matrix- vs cell-associated complexes. Format: binding, human. Particulars: average KD of (E) and (F), cell-associated complexes, read-out: (G) Cell AVRG. From the text: Column (A) of the table lists monoclonal antibodies with discrete amino acid sequences. […] Columns (B), (D), (E) and (F) provide affinities of each of the listed antibodies, measured in KD. […] Average KD values of (B) and (C) are shown in the corresponding column (D), which collectively represents affinities of the antibodies to ECM- or matrix-associated proTGFβ1 complexes. Similarly, Average KD values of (E) and (F) are shown in the corresponding column (G), which collectively represents affinities of the antibodies to cell-surface or cell-associated proTGFβ1 complexes. Finally, relative ratios between the average KD values from columns (D) and (G) are expressed as “fold bias” in column (H). […] This is one way of quantitatively representing and comparing inherent bias of antibodies to their target complexes.
Average KD values between the two matrix-associated and cell-associated complexes are calculated, respectively (see columns (D) and (G)). These average KD values can then be used to ask whether bias in binding activities exists between complexes associated with matrix vs. complexes associated with cell surface (e.g., immune cells). Bias may be expressed as “fold-difference” in the average KD values, as illustrated in Table 8.
For the molecule B1, the Kd came to 14.2 nM.
Still for that read-out and setting: in the case of B2 it was 7.11 nM.
On the same count and under the same terms, next, B3: 12.7 nM; B4: 8.4 nM.

The assay is the same for the next values; noted with them: ratio of average KD cell-associated / matrix-associated.
As for B1, the “(H) G/D (fold bias)” value was 31.3 fold.
The same measure, in the same setting: in the case of B2 it was 18.5156 fold; in that of B3, 40.25 fold.
Still for that read-out and setting: next, B4: 26.58 fold.

A further assay shares this test system. Described as above. Format: binding, human. The note with it: average KD of (B) and (C), read-out: (D) ECM AVRG.
Turning to B1, the Kd worked out at 0.452 nM.
On the same count and under the same terms, next, B2: 0.384 nM; B3: 0.316 nM.
The same measure, in the same setting: next, B4: 0.316 nM.
